Reference: publication PMC4336329 (PLoS ONE, 2015)
In all, about 310,000 compounds went through this assay and about 14,000 (4.5%) showed an effect of 50% or more. Effects have a minus sign here. This is one part of the list.

Biological target: human ether-à-go-go-related gene (hERG) potassium channel (human, UniProt Q12809)
Test: primary screen, population patch clamp on CHO cells stably expressing hERG
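Further: peak tail current of the secondary pulse compared with the same well before compound.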

Chain of human ether-à-go-go-related gene (hERG) potassium channel (Q12809 whole entry, looked up): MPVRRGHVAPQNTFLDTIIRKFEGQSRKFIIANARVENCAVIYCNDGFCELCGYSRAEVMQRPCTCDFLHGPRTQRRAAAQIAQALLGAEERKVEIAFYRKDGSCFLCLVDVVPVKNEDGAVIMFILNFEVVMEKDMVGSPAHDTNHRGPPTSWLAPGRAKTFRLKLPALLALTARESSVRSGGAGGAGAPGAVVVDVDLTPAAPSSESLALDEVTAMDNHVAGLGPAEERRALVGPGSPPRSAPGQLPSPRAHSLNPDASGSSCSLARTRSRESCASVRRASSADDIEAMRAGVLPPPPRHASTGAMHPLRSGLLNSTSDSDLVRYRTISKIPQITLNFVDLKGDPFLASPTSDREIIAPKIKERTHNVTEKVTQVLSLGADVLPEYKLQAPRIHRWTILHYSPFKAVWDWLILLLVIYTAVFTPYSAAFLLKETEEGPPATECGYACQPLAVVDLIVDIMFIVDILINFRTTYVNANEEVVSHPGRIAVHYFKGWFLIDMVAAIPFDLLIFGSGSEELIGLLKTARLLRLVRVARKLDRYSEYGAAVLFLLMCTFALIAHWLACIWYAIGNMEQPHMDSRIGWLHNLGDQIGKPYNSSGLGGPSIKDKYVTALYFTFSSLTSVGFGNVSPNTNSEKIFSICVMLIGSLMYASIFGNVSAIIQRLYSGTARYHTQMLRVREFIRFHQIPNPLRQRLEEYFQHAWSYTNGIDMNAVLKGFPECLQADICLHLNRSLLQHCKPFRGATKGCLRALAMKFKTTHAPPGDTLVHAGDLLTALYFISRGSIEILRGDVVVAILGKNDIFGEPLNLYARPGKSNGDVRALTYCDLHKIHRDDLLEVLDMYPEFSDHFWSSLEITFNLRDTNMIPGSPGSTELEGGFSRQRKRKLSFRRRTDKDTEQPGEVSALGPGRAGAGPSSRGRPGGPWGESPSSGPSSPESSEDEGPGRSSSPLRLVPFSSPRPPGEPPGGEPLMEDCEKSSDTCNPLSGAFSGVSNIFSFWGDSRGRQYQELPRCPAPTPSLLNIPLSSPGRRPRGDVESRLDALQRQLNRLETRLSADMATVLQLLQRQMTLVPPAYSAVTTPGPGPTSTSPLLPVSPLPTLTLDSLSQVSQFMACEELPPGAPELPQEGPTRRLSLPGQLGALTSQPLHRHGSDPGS

SMILES	hERG current change (%, negative = inhibition) at 10uM
COc1ccc(N2CCCC2)c(NC(=O)COc2ccccc2)c1	11.5%
O=C(COc1ccc2c3c(c(=O)oc2c1)CCC3)NCCN1CCOCC1	-5.25%
O=C(Nc1cc2c(cc1Cl)OCCO2)c1ccco1	17.6%
Cc1cnc(C(=O)OCC(=O)N(C)CC(=O)Nc2ccccc2Cl)cn1	-2.14%
CC(=O)c1cccc(CN2CCCC(CCC(=O)NCc3ccc(C)o3)C2)c1 (centres unmarked)	-16.2%
CCc1cc2c(C)ccc(C)c2nc1SCC(=O)Nc1c[nH]c(=O)[nH]c1=O	21.3%
COC(=O)c1ccc(CNC(=O)c2cc(COc3cncc(Cl)c3)on2)cc1	12.4%
CC(C)(C)OC(=O)N1CCN(C(=O)c2[nH]cnc2C(=O)Nc2ccon2)CC1	9.6%
CC(C)CCNC(=O)C12CN(Cc3ccccc3)CC1C(c1ccc([N+](=O)[O-])cc1)=NO2 (centres unmarked)	-53.1%
COCCn1c(SCC(=O)N2CC(=O)Nc3ccccc32)nc2ccccc2c1=O	-26.9%
Oc1ccc(/C=C/c2cc(O)cc(O)c2)cc1	-1.26%
CCn1ccnc1CN1CCCC(C(=O)c2ccc3c4c(cccc24)CC3)C1 (centres unmarked)	-77.4%
Clc1ccccc1Cc1noc(CN2CCCCC2CCc2ccccn2)n1 (centres unmarked)	-29.4%
COc1ccc(-c2ccc(=O)n(CC(=O)Nc3ccc4c(c3)OCCO4)n2)cc1	18.8%
O=C(COc1ccccc1F)NNC(=O)Cn1c(=O)cnc2ccccc21	15.3%
Cc1ccccc1-n1nnnc1SCC(=O)NCC1CCCO1 (centres unmarked)	14.7%
CN(C(=O)COC(=O)c1c[nH]c(=O)[nH]c1=O)C1CCCCC1	-3.35%
c1cncc(C2CC(c3cccs3)n3ncnc3N2)c1 (centres unmarked)	-6.38%
CC(C)OCCCN1CN(S(=O)(=O)c2ccc(Cl)cc2)c2nc3ccccc3nc21	16.6%
Cc1cccc(NC(=O)c2ccccc2NC(=O)c2ccco2)c1	1.79%
CN(C)c1cccc2c1c(NC(=O)Nc1ccc(F)cc1F)nn2C	5.57%
NCCCC[C@@H](C(=O)N1CCNCC1)n1cc([C@@H](N)CC(N)=O)nn1	6.16%

SMILES	hERG current change (%, negative = inhibition) at 10uM
CC1CCN(C(c2nnnn2CCc2ccccc2)C(C)C)CC1 (centres unmarked)	-9.03%
O=C(CN1C(=O)CCS(=O)(=O)c2ccccc21)Nc1ccccc1F	3.96%
CC(C)(C)C(=O)Nc1cccc(-c2nnc(-c3cccc(NC(=O)C(C)(C)C)c3)o2)c1	-5.21%
COc1cc(CN2CCN(c3ccccc3F)CC2)c([N+](=O)[O-])cc1OC	-27.4%
Cn1cnnc1Sc1ccc(/C=C(\CCC(=O)O)c2nc3ccccc3s2)cc1[N+](=O)[O-]	-3.23%
Cc1ccccc1S(=O)(=O)c1c(C)cc(-c2ccccc2)[nH]c1=O	0.781%
CCN(CC)c1ccc(/C=N/NC(=O)c2cccc(S(=O)(=O)N3CCOCC3)c2)cc1	-24.4%
COc1ccccc1NC(=O)NS(=O)(=O)c1ccc(C)cc1	21.1%
O=c1c2c(-c3cccs3)csc2ncn1-c1ccc(Br)cc1	-11.4%
Cc1ccc(NC(=O)CSc2nccn2C)cc1S(=O)(=O)N1CCOCC1	-7.19%
CN1CCC(=NNC(=O)c2cc(-c3ccc(Cl)cc3)n[nH]2)CC1	-16.4%
CC1(OC(=O)CCc2ccccc2)C(=O)C=C2C=C(c3ccc(C#N)cc3)N(CCc3c[nH]c4ccccc34)C=C2C1=O (centres unmarked)	-7.98%
CCOC(=O)c1cc(NC(=O)c2cccs2)ccc1N1CCOCC1	-7.18%
COc1ccc(C(=O)NN2C(=O)C3CCC(C)(C2=O)C3(C)C)cc1 (centres unmarked)	1.82%
COc1cc(NC(=O)Nc2cc(C)on2)cc(OC)c1OC	19.6%
S=C(Nc1ccccc1)N1CCOCC1	11.5%
CC1=CC(C)(C)Nc2ccc(OS(=O)(=O)c3ccc(C)cc3)cc21	-1.89%
CN1C(=O)C(=O)/C(=C(/O)c2ccc(Br)cc2)C1c1ccc(Cl)cc1 (centres unmarked)	16.5%
COc1ccccc1NC(=O)c1nn(-c2ccc(F)c(F)c2)ccc1=O	-2.51%
C/C(=N\NC(=O)c1ccc(OC2OCCOC2Oc2ccc(C(=O)N/N=C(\C)c3ccncc3)cc2)cc1)c1ccncc1 (centres unmarked)	-1%
CC(C)CCNC(=O)NC(=O)COC(=O)/C=C/c1cnc2ccccc2n1	0.949%
COc1ccccc1N(C(=O)c1ccco1)C(C(=O)NC1CCCC1)c1cccnc1 (centres unmarked)	-0.441%

SMILES	hERG current change (%, negative = inhibition) at 10uM
CC(=O)Nc1ccc2c(c1)CC1(C(=O)N(C)C(=O)N(C)C1=O)C1CCCN21 (centres unmarked)	12.3%
COc1ccccc1C(=O)Nc1ccc2c(c1)OCCO2	15.8%
O=C(/C=C/c1cccc([N+](=O)[O-])c1)Nn1c(-c2ccccc2F)nc2ccccc2c1=O	-23.1%
O=C(O)c1cc(=O)c2cc(Cl)ccc2o1	17.3%
Cc1ccccc1-c1nc2ccccc2o1	8.78%
CNC(=S)NNc1nc(-c2ccccc2)c2cc(Cl)ccc2n1	2.33%
CCOC(=O)C1=C(C)N(C)C(C)=C(C(=O)OCC)C1c1ccc(C(=O)OC)cc1	4.71%
Cc1ccc(C)c(NS(=O)(=O)c2ccc3[nH]c(=O)oc3c2)c1	1.28%
O=C(CSc1ncnc2scc(-c3ccccc3)c12)N1CCN(c2ccccc2F)CC1	17.4%
CCOC(=O)C1CCCN(C(=O)CCCn2nnnc2CN2CCC(C)CC2)C1 (centres unmarked)	-8.13%
O=C(NCCCCNC(=O)c1c(F)c(F)c(F)c(F)c1F)c1c(F)c(F)c(F)c(F)c1F	6.49%
COc1cc(OC)cc(C(=O)Nc2ccc(S(=O)(=O)N(C)C)cc2)c1	0.297%
CCC(C)(C)n1nnnc1C(c1ccc2ncccc2c1)N1CCCCCC1 (centres unmarked)	6.75%
CC(C(=O)Nc1ccccc1)N(c1cccc(Cl)c1)S(C)(=O)=O (centres unmarked)	0.61%
O=C1OC(c2ccc(F)cc2)=N/C1=C\c1ccc(Br)o1	12%
Cc1ccnc(NC(=O)CCC(=O)N(CC(=O)NCc2ccc(F)cc2)c2ccc(F)cc2)c1	4.38%
Cc1csc(NC(=O)C(Cl)c2ccccc2)n1.O=C(O)C(Cl)c1ccccc1 (centres unmarked)	9.4%
O=C(OCC(=O)N1CCCc2ccccc21)c1ccc(F)c(S(=O)(=O)N2CCOCC2)c1	-23.7%
CCCc1c(C)c(C#N)c2nc3ccccc3n2c1NCCCN1CCOCC1	-44%
CN(C(=O)C1CCC(=O)N(CCCN2CCCC2=O)C1)C(C1CC1)C1CC1 (centres unmarked)	12.1%
CC1(C)OC(=O)N(CC(=O)Nc2cccc(C(F)(F)F)c2)C1(C)O (centres unmarked)	11.2%
O=Cc1cn(Cc2ccc(F)cc2Cl)c2ccccc12	1.44%

SMILES	hERG current change (%, negative = inhibition) at 10uM
CCC(=O)Nc1cc(-c2nn(C)c(=O)c3ccccc23)ccc1N1CCOCC1	-0.794%
CCn1cc(S(=O)(=O)CC(=O)N2CCc3ccccc32)c2ccccc21	-24.8%
Oc1ccc(/C=N/NC(=S)Nc2cccnc2)c(O)c1	17.5%
N/C(=N\OC(=O)N1CCOCC1)c1ccc(Cl)cc1	16.4%
O=C(CCN1C(=O)/C(=C/c2ccccc2Cl)SC1=S)NC1CCS(=O)(=O)C1 (centres unmarked)	14.1%
O=C(c1ccccn1)C1CCCN(Cc2nc(Cc3cccc(F)c3)no2)C1 (centres unmarked)	-5.63%
O=C(NC1=NCCS1)c1cccc(Br)c1	22.2%
Cc1ccc(N2CCN(/N=C/c3c(C)nn(-c4ccccc4)c3Cl)CC2)cc1	7.33%
CCN(CC)S(=O)(=O)c1ccc(OC)c(NC(=O)c2ccc(=O)[nH]c2)c1	-15.2%
COC(=O)CC(=O)c1ccc2c(c1)OCO2	4.48%
COc1ccc(C(C)C)cc1S(=O)(=O)N1CCN(c2ccccc2)CC1	23.9%
Cc1ccc(N(C(C)C(=O)Nc2cccc(N(C)S(C)(=O)=O)c2)S(C)(=O)=O)cc1 (centres unmarked)	8.34%
CC(=O)c1ccc(C(=O)N(CCN(C)C)c2nc3c(Cl)cccc3s2)cc1.Cl	-48.6%
CC(=O)N1N=C(c2ccccc2)OC12CCCC2	-0.718%
Cn1c(SCC(=O)c2ccc(F)cc2)nnc1-c1ccccc1N	-1.7%
CCc1noc(C)c1C(=O)N1CCC(CCC(=O)Nc2cccc(C)c2)CC1	-32.8%
CCc1cc(=O)oc2cc(C)c(CN3CCCC(C)C3)c(O)c12 (centres unmarked)	-3.29%
COC(=O)c1cc(Oc2ccc(C(=O)OC)cc2N)cc(C(=O)OC)c1	11.2%
Cc1cccc(Nc2nnc(SC(C)C(=O)NC3CC3)s2)c1 (centres unmarked)	-6.43%
CCOC(=O)/C=C/[C@H]1CC2(CCO1)SCCCS2	-0.263%
